From the RNAGym collection of RNA variant scans (doi:10.1073/pnas.2313332121)
Variants at the floor of the assay are shown more often than the library holds them.

B1: TPR 5TU (parent)
chain: GGAUCUUCUCGAUCUAACAAAAAAGACAAAUCUGCCACAAAGCUUGAGAGCAUCUUCGGAUGCAGAGGCGGCAGCCUUCGGUGGCGCGAUAGCGCCAACGUUCUCAACUAUGACACGCAAAACGCGUGCUCCGUUGAAUGGAGUUUAUCAUG

Variants of: B1
Assay: polymerase ribozyme fitness, log enrichment relative to wild type (log ratio); higher = more active; in vitro selection for triplet polymerase activity
Summary of the method: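 Mutant libraries of each subunit of a heterodimeric triplet polymerase ribozyme were built by PCR and transcribed. Each library went through one round of in vitro selection in triplicate: annealing with biotinylated primer, partner subunit and triplets, frozen incubation at −7 °C, gel excision of extended constructs, streptavidin-bead capture and RT-PCR. Input and output libraries were Illumina-sequenced; only genotypes with ≥10 input reads and ≥1 read per output were kept. Fitness is log2(genotype enrichment/wild-type enrichment), using inverse-variance-weighted replicate averages.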

| Variant | polymerase ribozyme fitness (log ratio) |
| --- | --- |
| GGAUCUUCUCGAUCUAACAAAAAUGACAAAUCUGCCUCAAAGCUUGAGAGCAUCUUCGGAUGCAGAGGCGGCAGCCUUCGGGGGCGCGAUAGCGCCAACGUUCUCAACUAUGACACGCAAAACGCGUGCUCCGUUGAAUGGAGUUUAUCAUG [A24U A37U U82G] | -0.974 |
| GGAUCUUCUCGAUCUAACAAAAAUGACAAAUCUGCCACCAAGCUUGAGAGCAUCUUCGGAUGCAGAGGCGGCGGCCUUCGGUGGCGCGAUAGCGCCAACGUUCUCAAUUAUGACACGCAAAACGCGUGCUCCGUUGAAUGGAGUUUAUCAUG [A24U A39C A73G C108U] | ≤ -4.2 |
| GGAUCUUCUCGAUCUAACAAAAAUGACAAAUCUGCCACUAAGCUUGAGAGCAUCUUUGGAGGCAGAGGCGGCAGCCUUCGGUGGUGCGAUAGCGCCAACGUUUUCAACUAUGACACGCAAAACGUGUGCUCCGUUGAAUGGAGUUUAUCAUG [A24U A39U C57U U61G C85U C103U C125U] | ≤ -4.2 |
| GGAUCUUCUCGAUCUAACAAAAAUGACAAAUCUGCCACAACGCUUGAGGGCAUCUUCGGACGCAGAGGCGGCAGCCUUCGGUGGCGCGAUAGCGCCAACGUUCUCAAUUAUGACACGCAAAACGCGUGCUCCGUUGAAUGGAGUUAAUCAUG [A24U A41C A49G U61C C108U U146A] | ≤ -4.2 |
| GGAUCUUCUCGAUCUAACAAAAAUGACAAAUCUGCCACAACGCUUGAGAGCAUUUUCGGAUGCAGAUGCGGCAGCCUUCGGUGGCGCAAUAGCGCCAACGUUCUCAACUAUGACACGCAAAACGCGUGCUCCGUUGAAUGGAGUUUAUCAUG [A24U A41C C54U G67U G88A] | ≤ -4.2 |
| GGAUCUUCUCGAUCUAACAAAAAUGACAAAUCUGCCACAACACUUGAGAGCAUCUUCGGAUGCAGAGGCGGCAGCCUUCGGUGGCGCGAUAGCGUCAUCGUUCUCAACUAUGACACACAAAACGCGUGCUCCGUUGAAUGGAGUUUAUCAUG [A24U A41C G42A C95U A98U G117A] | ≤ -4.2 |
| GGAUCUUCUCGAUCUAACAAAAAUGACAAAUCUGCCACAAAGCUUGGGAGCAUCUUCGGAUUCAGAGGCGGCAGCCUUGGGUGGCGCGAUGGCGCCAACGUUCUCAACUAUGACACGCAAAACGCGUGCUCCGUUGAAUGGAGUUUAUCAUG [A24U A47G G62U C79G A91G] | ≤ -4.2 |
| GGAUCUUCUCGAUCUAACAAAAAUGACAAAUCUGCCACAAAGCUUGAGCGCAUCUUCGCAUGCAGAGGCGGCAGCCUUAGGUGGCGCGAUAGCGCCAACGUUCUCAAGUAUGACACGCAAAACGCGUGCUCCGUUGAAUGGAGUUUAUCAUG [A24U A49C G59C C79A C108G] | ≤ -4.2 |
| GGAUCUUCUCGAUCUAACAAAAAUGACAAAUCUGCCACAAAGCUUGAGCGCAACUUCGGAUGCAGAGGCGGCAGCCUUCGGUGGCGUGAUAGCGCCAAAGUUAUCAACUAUGACACGCAAAACGCGUGCUCCGUUGAACGGAGUUUAUCAUG [A24U A49C U53A C87U C99A C103A U139C] | ≤ -4.2 |
| GGAUCUUCUCGAUCUAACAAAAAUGACAAAUCUGCCACAAAGCUUGAGAGCCUCUUCGGAUGCAGACGCGGCAGCCUUCGGGGGCGCGAUAGCGCCAACGUUCUCAACGAUGACACGCAAAACGCGUGCUCCGUUGAAUGGAGUUUAUCAUG [A24U A52C G67C U82G U109G] | ≤ -4.2 |
| GGAUCUUCUCGAUCUAACAAAAAUGACAAAUCUGCCACAAAGCUUGAGAGCUUCUUCGGAUGCAGAUGCGGCUGCCUUCGGUGGCGCGAUAGCUCCAACGUUCUCAACUAUGACACGCAAAACGCGUGCUCCGUUGACUGGAGUUUAUCUUG [A24U A52U G67U A73U G94U A138C A150U] | ≤ -4.2 |
| GGAUCUUCUCGAUCUAACAAAAAUGACAAAUCUGCCACAAAGCUUGAGAGCAUCUUCGGAUGCAGAGGCGGCAGCCUUCGGUGGCGCGAUAGCGCCAUUGUUCUCAACUAUGACACGCAAAACGCGGGCUCCGUUGAAUGGAGUUUAUCAUG [A24U A98U C99U U127G] | -3.94 |
| GGAUCUUCUCGAUCUAACAAAAAUGAAAAAUCUGCCAGAAAGCUUGAGAGCAUCUUCGGAUGCAGAGGCGGCAGCCUUAGGUUGCGCGAUAGCGCCAACGUUCUCAACUAUGACACGCAAAACGCGUGCUCCGUUGAAUGGAGUUUAUCAUG [A24U C27A C38G C79A G83U] | ≤ -4.2 |
| GGAUCUUCUCGAUCUAACAAAAAUGAAAAAUCUGCCACAAAGCUUGAGAGCAUAUUCGGAUGCAGAGGCGGCAGCCUUCGGUGGCGCGAUAGCGCCAACGUUCUCAACUAUGACACGCAAAACGCGUGCUCCGUUGAAUGGAGUUUAUCGUG [A24U C27A C54A A150G] | ≤ -4.2 |
| GGAUCUUCUCGAUCUAACAAAAAUGACAAAUAUGCCACAAAGCUUGAGAGCAACUUCGGAUGCAGAGGCGGCAGCCUUCGGUGGUGCGAUAGCGCCAACGUUCUCAACUAUGACGCGCAAAACGCGUGCUCCGUUGAAUGGAGUUUAUCUUG [A24U C32A U53A C85U A115G A150U] | ≤ -4.2 |
| GGAUCUUCUCGAUCUAACAAAAAUGACAAAUGUGCCACAAAGCUUGAGAGCAUCUUCGGAUGCAGAGGCGGCAGCCUUCGGUGGGGCGAUAGCGCCAACGUUCUCAACUAUGACACGCAAAACGCGUGCUCCGUUGAAUGGAGUUUAUCAUG [A24U C32G C85G] | ≤ -4.2 |
| GGAUCUUCUCGAUCUAACAAAAAUGACAAAUCUGACACAAAGCUUGAGAGCUUCUUCGGAUGCAGAGGCGGCAGCCUUCGGUGACGCGAUAGCGCCAACGUUCUCAACUAUGACACGCAAAACGCGUGCUCCGUUAAAUGGAGUUUAUCAUG [A24U C35A A52U G84A G136A] | ≤ -4.2 |
| GGAUCUUCUCGAUCUAACAAAAAUGACAAAUCUGACACAAAGCUUGAGAGCAUCUUCGGAUGCAGAGGCGGCAGCCUUCGGUGGCGCGAUAGCGCCAACGUUCUCAACUAUGUCACGCAAAACGCGUGCUCCGUUGAAUGAAGUUUAUCAUG [A24U C35A A113U G141A] | ≤ -4.2 |
| GGAUCUUCUCGAUCUAACAAAAAUGACAAAUCUGUCAGAAAGCUUGAGAGCAUCUUCGGAUGCAGAGGCGGCAGCCUUCGGUGGCGCGUUUGCGCCAACGUUCUCAACUAUGACACGCAAAACGCGUGCUCCGUUGAAUGGAGUUUAUCAUG [A24U C35U C38G A89U A91U] | -3.93 |
